Article PMC9911399, “Two distinct binding modes provide the RNA-binding protein RbFox with extraordinary sequence specificity”
Where a chain is given by its changes, count along the chain named. The list shows a part of the results.

T1: RBFOX1 RRM (Homo sapiens, UniProt Q9NWB1 109-208)
T1 sequence: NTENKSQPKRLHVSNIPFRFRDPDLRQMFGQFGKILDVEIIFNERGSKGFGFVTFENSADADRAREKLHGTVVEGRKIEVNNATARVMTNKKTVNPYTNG

B1: CUACGAU (DNA:RNA)
RNA: GGGAGACCGGAAUUCAGAUUGUCCCUACGAUUUAAAUCCCGUCGUAGCCACCA
DNA 1: CAATCTGAATTCCGGTCTCCC
DNA 2: TGGTGGCTACGACGGGATT
B2: GAAUUAU (DNA:RNA)
RNA: B1 RNA with C25G, U26A, C28U, G29U
DNA 1: CAATCTGAATTCCGGTCTCCC
DNA 2: TGGTGGCTACGACGGGATT
B3: GUUCGCC (DNA:RNA)
RNA: B1 RNA with C25G, A27U, A30C, U31C
DNA 1: CAATCTGAATTCCGGTCTCCC
DNA 2: TGGTGGCTACGACGGGATT
B4: GCCUCGC (DNA:RNA)
RNA: GGGAGACCGGAAUUCAGAUUGUCCGCCUCGCUUAAAUCCCGUCGUAGCCACCA
DNA 1: CAATCTGAATTCCGGTCTCCC
DNA 2: TGGTGGCTACGACGGGATT
B5: ACUAAUC (DNA:RNA)
RNA: B4 RNA with G25A, C27U, U28A, C29A, G30U
DNA 1: CAATCTGAATTCCGGTCTCCC
DNA 2: TGGTGGCTACGACGGGATT
B6: GCUAGGU (DNA:RNA)
RNA: B4 RNA with C27U, U28A, C29G, C31U
DNA 1: CAATCTGAATTCCGGTCTCCC
DNA 2: TGGTGGCTACGACGGGATT
B7: ACUAUAU (DNA:RNA)
RNA: B1 RNA with C25A, U26C, A27U, C28A, G29U
DNA 1: CAATCTGAATTCCGGTCTCCC
DNA 2: TGGTGGCTACGACGGGATT
B8: UGCGCCU (DNA:RNA)
RNA: B4 RNA with G25U, C26G, U28G, G30C, C31U
DNA 1: CAATCTGAATTCCGGTCTCCC
DNA 2: TGGTGGCTACGACGGGATT
B9: UGGAUGU (DNA:RNA)
RNA: B1 RNA with C25U, U26G, A27G, C28A, G29U, A30G
DNA 1: CAATCTGAATTCCGGTCTCCC
DNA 2: TGGTGGCTACGACGGGATT
B10: UGGUGGU (DNA:RNA)
RNA: B1 RNA with C25U, U26G, A27G, C28U, A30G
DNA 1: CAATCTGAATTCCGGTCTCCC
DNA 2: TGGTGGCTACGACGGGATT
B11: AGUUGGG (DNA:RNA)
RNA: B4 RNA with G25A, C26G, C27U, C29G, C31G
DNA 1: CAATCTGAATTCCGGTCTCCC
DNA 2: TGGTGGCTACGACGGGATT
B12: ACGCCUC (DNA:RNA)
RNA: B4 RNA with G25A, C27G, U28C, G30U
DNA 1: CAATCTGAATTCCGGTCTCCC
DNA 2: TGGTGGCTACGACGGGATT
B13: ACUAGAG (DNA:RNA)
RNA: B1 RNA with C25A, U26C, A27U, C28A, U31G
DNA 1: CAATCTGAATTCCGGTCTCCC
DNA 2: TGGTGGCTACGACGGGATT
B14: AUACCAA (DNA:RNA)
RNA: B1 RNA with C25A, G29C, U31A
DNA 1: CAATCTGAATTCCGGTCTCCC
DNA 2: TGGTGGCTACGACGGGATT
B15: AUCCCUG (DNA:RNA)
RNA: B1 RNA with C25A, A27C, G29C, A30U, U31G
DNA 1: CAATCTGAATTCCGGTCTCCC
DNA 2: TGGTGGCTACGACGGGATT
B16: GGGAGCA (DNA:RNA)
RNA: B1 RNA with C25G, U26G, A27G, C28A, A30C, U31A
DNA 1: CAATCTGAATTCCGGTCTCCC
DNA 2: TGGTGGCTACGACGGGATT
B17: AAUGUGU (DNA:RNA)
RNA: B1 RNA with C25A, U26A, A27U, C28G, G29U, A30G
DNA 1: CAATCTGAATTCCGGTCTCCC
DNA 2: TGGTGGCTACGACGGGATT
B18: CGGGGUC (DNA:RNA)
RNA: B1 RNA with U26G, A27G, C28G, A30U, U31C
DNA 1: CAATCTGAATTCCGGTCTCCC
DNA 2: TGGTGGCTACGACGGGATT
B19: ACUUGAC (DNA:RNA)
RNA: B4 RNA with G25A, C27U, C29G, G30A
DNA 1: CAATCTGAATTCCGGTCTCCC
DNA 2: TGGTGGCTACGACGGGATT
B20: AUAGCUU (DNA:RNA)
RNA: B1 RNA with C25A, C28G, G29C, A30U
DNA 1: CAATCTGAATTCCGGTCTCCC
DNA 2: TGGTGGCTACGACGGGATT
B21: GGGAAGG (DNA:RNA)
RNA: B4 RNA with C26G, C27G, U28A, C29A, C31G
DNA 1: CAATCTGAATTCCGGTCTCCC
DNA 2: TGGTGGCTACGACGGGATT
B22: GACUGCU (DNA:RNA)
RNA: B4 RNA with C26A, C29G, G30C, C31U
DNA 1: CAATCTGAATTCCGGTCTCCC
DNA 2: TGGTGGCTACGACGGGATT
B23: CGGUACA (DNA:RNA)
RNA: B1 RNA with U26G, A27G, C28U, G29A, A30C, U31A
DNA 1: CAATCTGAATTCCGGTCTCCC
DNA 2: TGGTGGCTACGACGGGATT
B24: CGCACGU (DNA:RNA)
RNA: B4 RNA with G25C, C26G, U28A, C31U
DNA 1: CAATCTGAATTCCGGTCTCCC
DNA 2: TGGTGGCTACGACGGGATT
B25: GAAACAC (DNA:RNA)
RNA: B4 RNA with C26A, C27A, U28A, G30A
DNA 1: CAATCTGAATTCCGGTCTCCC
DNA 2: TGGTGGCTACGACGGGATT
B26: UUUCGGG (DNA:RNA)
RNA: B1 RNA with C25U, A27U, A30G, U31G
DNA 1: CAATCTGAATTCCGGTCTCCC
DNA 2: TGGTGGCTACGACGGGATT
B27: ACACUCC (DNA:RNA)
RNA: B1 RNA with C25A, U26C, G29U, A30C, U31C
DNA 1: CAATCTGAATTCCGGTCTCCC
DNA 2: TGGTGGCTACGACGGGATT
B28: UCGACCG (DNA:RNA)
RNA: B4 RNA with G25U, C27G, U28A, G30C, C31G
DNA 1: CAATCTGAATTCCGGTCTCCC
DNA 2: TGGTGGCTACGACGGGATT
B29: CGCCUAG (DNA:RNA)
RNA: B1 RNA with U26G, A27C, G29U, U31G
DNA 1: CAATCTGAATTCCGGTCTCCC
DNA 2: TGGTGGCTACGACGGGATT
B30: UAACUCU (DNA:RNA)
RNA: B1 RNA with C25U, U26A, G29U, A30C
DNA 1: CAATCTGAATTCCGGTCTCCC
DNA 2: TGGTGGCTACGACGGGATT
B31: CCUCUAG (DNA:RNA)
RNA: B1 RNA with U26C, A27U, G29U, U31G
DNA 1: CAATCTGAATTCCGGTCTCCC
DNA 2: TGGTGGCTACGACGGGATT

Target: T1, RBFOX1 RRM
Assay: EMSA; HiTS-Eq, 1 nM pool, 10 min; buffer printed only for the single-RNA assays: 10 mM Tris pH 7.5, 150 mM NaCl, 3.4 mM EDTA, 0.001% NP-40, 30 C
Conditions: tags: His6 N-terminal (pET28a); label: 5' 32P
In short: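 These values rest on relative association constants, computed from read-count changes of each RNA species versus the control reaction and normalised to the cognate motif. Reads came from free RNA recovered by 8% native PAGE after purified RbFox RRM (wild type or mutant) at increasing concentrations was equilibrated for 10 min in 50 µL with 1 nM of a 5′-radiolabelled pool with 7 randomized nucleotides and DNA-annealed flanks.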

Binder | binding signal
B1 | 0.00513 KA relative to UGCAUGU
B2 | 0.00618 KA relative to UGCAUGU
B3 | 0.0212 KA relative to UGCAUGU
B4 | 0.011 KA relative to UGCAUGU
B5 | 0.00236 KA relative to UGCAUGU
B6 | 0.0175 KA relative to UGCAUGU
B7 | 0.000857 KA relative to UGCAUGU
B8 | 0.0169 KA relative to UGCAUGU
B9 | 0.0494 KA relative to UGCAUGU
B10 | 0.022 KA relative to UGCAUGU
B11 | 0.00622 KA relative to UGCAUGU
B12 | 0.00749 KA relative to UGCAUGU
B13 | 0.00827 KA relative to UGCAUGU
B14 | 0.000392 KA relative to UGCAUGU
B15 | 0.00611 KA relative to UGCAUGU
B16 | 0.0305 KA relative to UGCAUGU

Binder | binding signal
B17 | 0.0115 KA relative to UGCAUGU
B18 | 0.0407 KA relative to UGCAUGU
B19 | 0.0078 KA relative to UGCAUGU
B20 | 0.00333 KA relative to UGCAUGU
B21 | 0.024 KA relative to UGCAUGU
B22 | 0.0255 KA relative to UGCAUGU
B23 | 0.0069 KA relative to UGCAUGU
B24 | 0.0433 KA relative to UGCAUGU
B25 | 0.00274 KA relative to UGCAUGU
B26 | 0.00493 KA relative to UGCAUGU
B27 | 0.000416 KA relative to UGCAUGU
B28 | 0.0112 KA relative to UGCAUGU
B29 | 0.00888 KA relative to UGCAUGU
B30 | 0.00476 KA relative to UGCAUGU
B31 | 0.00474 KA relative to UGCAUGU
